Experimental data published in PubChem BioAssay AID504332 (National Center for Advancing Translational Sciences (NCATS), 2011).
“And” between values parts separate entries of the source, which are not always exact repeats. Equal values may be shown once. Hit rate of the full screen: of about 350,000 compounds, about 31,000 (8.9%) were called active. The inconclusive results got no clear call from the source; some entries with a clear call stand among them for comparison. Calls follow the shape of the dose curve; as a rule, active = well fitted inhibition curve with a large enough effect; inconclusive = small, poorly fitted or top-dose-only effect; inactive = no such curve, though single readings can be large or run the other way. Potencies beside an inconclusive call are fits to weak or partial responses and may not hold up.

Biological target: Histone-lysine N-methyltransferase EHMT2 (Homo sapiens) (UniProt Q96KQ7)
Assay: qHTS Assay for Inhibitors of Histone Lysine Methyltransferase G9a; also: nearly all actives have a fitted effect of over 75% in size
Conditions: G9a H3K9 monomethylation, AlphaScreen, 2 h; activity, negative = inhibition: at 59 µM (top of the series) unless noted
Method in brief: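 Step 1: enzyme (final 20 nM) with compound, 15 min RT. Step 2: substrate peptide 500 nM and SAM 20 uM, 2 h RT. Step 3: anti-H3K9me1 antibody and AlphaScreen beads, 10 min, then plate read.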
% is scaled to controls: 0 for no effect and ±100 for the full control effect; potency is read from the fitted curve at half-maximal effect; tags tell the direction and shape of the fitted curve.

UniProt Q96KQ7, sequence (Q96KQ7 whole entry, looked up): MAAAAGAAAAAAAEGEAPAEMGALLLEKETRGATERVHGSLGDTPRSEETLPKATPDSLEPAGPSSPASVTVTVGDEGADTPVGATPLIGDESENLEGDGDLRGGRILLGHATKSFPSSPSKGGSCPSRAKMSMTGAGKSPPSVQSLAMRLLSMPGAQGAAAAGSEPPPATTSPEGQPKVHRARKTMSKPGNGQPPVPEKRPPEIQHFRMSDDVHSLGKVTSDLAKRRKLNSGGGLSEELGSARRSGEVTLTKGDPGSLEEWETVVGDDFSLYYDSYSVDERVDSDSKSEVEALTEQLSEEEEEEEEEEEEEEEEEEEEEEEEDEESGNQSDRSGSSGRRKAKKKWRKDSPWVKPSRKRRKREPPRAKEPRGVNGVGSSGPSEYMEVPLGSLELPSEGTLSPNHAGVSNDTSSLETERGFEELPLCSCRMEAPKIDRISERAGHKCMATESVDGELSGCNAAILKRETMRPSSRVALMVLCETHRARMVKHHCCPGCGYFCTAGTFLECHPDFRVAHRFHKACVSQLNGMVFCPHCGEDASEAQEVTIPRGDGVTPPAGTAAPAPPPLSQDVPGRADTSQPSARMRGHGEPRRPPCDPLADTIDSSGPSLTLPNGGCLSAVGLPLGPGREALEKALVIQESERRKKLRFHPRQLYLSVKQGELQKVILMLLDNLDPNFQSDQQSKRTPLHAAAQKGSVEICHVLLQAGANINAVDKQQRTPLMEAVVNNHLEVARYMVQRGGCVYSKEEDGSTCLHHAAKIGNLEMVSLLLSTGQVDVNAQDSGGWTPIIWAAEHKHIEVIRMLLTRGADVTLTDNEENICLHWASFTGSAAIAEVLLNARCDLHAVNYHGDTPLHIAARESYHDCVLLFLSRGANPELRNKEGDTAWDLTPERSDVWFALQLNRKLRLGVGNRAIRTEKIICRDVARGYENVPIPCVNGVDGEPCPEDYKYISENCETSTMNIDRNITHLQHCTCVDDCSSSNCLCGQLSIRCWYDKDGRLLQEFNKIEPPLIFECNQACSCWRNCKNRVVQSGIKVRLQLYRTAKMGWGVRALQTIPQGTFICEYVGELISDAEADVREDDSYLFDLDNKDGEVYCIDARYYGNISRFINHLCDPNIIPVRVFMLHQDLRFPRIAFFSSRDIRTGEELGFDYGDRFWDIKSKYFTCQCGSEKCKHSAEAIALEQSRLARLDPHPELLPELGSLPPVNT

SMILES	Potency	activity, negative = inhibition
O=C(c1cccc(S(=O)(=O)NCc2ccccc2)c1)N1CCN(c2ccc(F)cc2)CC1	inconclusive: 3.16 µM [inhibitor, single point]	–
S=C(NC1CCCCC1)N1CCN(Cc2ccccc2)CC1	–	inactive: 6.12%
COc1ccc2c(c1)C(c1cccs1)=NNC(c1cccnc1)=N2	inconclusive: 70.8 µM [inhibitor, single point]	–
O=[N+]([O-])c1ccc(CSc2nc3ccccc3[nH]2)cc1	active: 28.2 µM	–
CCNC(=S)NNC(=O)c1cccn(Cc2ccc(Cl)cc2Cl)c1=O	inconclusive: 79.4 µM [inhibitor, single point]	–
O=C(O)C(Cc1c[nH]c2ccccc12)NS(=O)(=O)c1cccc(Cl)c1Cl (stereo not given)	–	inactive: -17.6% [at 102 µM]
CCOC(=O)C1CCCN(Cc2nc(Cc3cccc(F)c3)no2)C1 (stereo not given)	inconclusive: 7.94 µM [inhibitor, full curve]	–
CCCCCC(=O)N1CCN(CCN=CC2=C(O)CC(c3ccco3)CC2=O)CC1 (stereo not given)	–	inconclusive: -52.8% [inhibitor]
CCN(CC)C(=O)Cn1c(=O)n(-c2ccc(Cl)cc2)c(=O)c2c3c(sc21)CCCCC3	–	inactive: 8.34%
Cc1cc(C(=O)Nc2cccc3ccccc23)co1	inconclusive: 79.4 µM [inhibitor, single point]	–
O=C(/C=C/c1cccs1)Nc1nc(-c2ccccc2)cs1	–	inactive: -2.2% [at 102 µM]
O=C1CC(c2ccccc2)Sc2ccccc2N1 (stereo not given)	active: 44.7 µM	–
NC(=O)CSc1ccc(S(=O)(=O)N2CCOCC2)cn1	inconclusive: 7.94 µM [inhibitor, full curve, poor fit]	–
CCOc1ccc(CCNC(=O)CCn2c(=O)c3cccn3c3ccc(F)cc32)cc1OCC	–	inactive: -1.95%
CC(=O)Nc1cc[n+](C(C)C(=O)c2ccc(Cl)cc2)cc1 (stereo not given)	–	inactive: -5.32% [at 102 µM]
CC(C)(C)c1ccc(OCC(=O)Nc2ccncc2)cc1	–	inactive: 29.4% [at 102 µM]
CC(=O)c1c(C)[nH]c(C(=O)OCC(=O)c2c[nH]c3ccccc23)c1C	–	inactive: -65.9% [at 12.7 µM]
CCOc1cc(-c2cc(-c3ccc(C)o3)nc(N)c2C#N)ccc1O	active: 39.8 µM	–
c1ccc(Cn2c(Sc3nnnn3-c3ccccc3)nnc2-c2ccccc2)cc1	–	inactive: 8.39% [at 12.7 µM]
COC(=O)Cc1ccc(NC(=O)c2ccc(NC(=O)c3ccco3)cc2)cc1	inconclusive: 79.4 µM [inhibitor, partial curve, poor fit]	–
Cc1nnc(NC(=O)CSc2nnc(Cc3cccn3C)n2-c2cccc(C)c2C)s1	inconclusive: 39.8 µM [inhibitor, single point]	–
c1ccc(N2CCN(c3cnccn3)CC2)nc1	inconclusive: 0.355 µM [inhibitor, partial curve, poor fit]	–
O=C1CC(Nc2ccc(N3CCOCC3)cc2)C(=O)N1c1ccccc1 (stereo not given)	–	inconclusive: -86.2% [inhibitor]
CC(=O)O/N=C/c1c(N2CCOCC2)n(C)c2ccccc12	–	inactive: 22.4% [at 102 µM]
Oc1ccccc1/C=N/NC(=S)NC1CC2CC1C1C=CCC21 (stereo not given)	–	inactive: -29.9% [at 102 µM]

SMILES	Potency	activity, negative = inhibition
COc1cccc2c(=O)n(CC(=O)N3CCCCCC3)ccc12	inconclusive: 89.1 µM [inhibitor, partial curve, poor fit]	–
O=C(CSc1nnc(-c2csc3c2CCCC3)o1)Nc1ccccc1	inconclusive: 89.1 µM [inhibitor, single point]	–
COc1cc(/C=N/n2c(-c3cc(C)[nH]n3)n[nH]c2=S)cc(OC)c1OC	active: 2.51 µM	–
COc1cc(NC(=O)CSc2cc(=O)n(C)c3ccccc23)cc(OC)c1OC	–	inactive: -7.38%
CN1CCN(c2ccc(NC(=O)c3cc4ccccc4o3)cc2)CC1	inconclusive: 79.4 µM [inhibitor, single point]	–
CCOc1ccc(N(CC(=O)Nc2c(C)n(C)n(-c3ccccc3)c2=O)S(=O)(=O)c2ccccc2)cc1	inconclusive: 89.1 µM [inhibitor, single point]	–
CC1CCCC(NC(=O)CCC(=O)NCc2ccccc2)C1C (stereo not given)	–	inactive: 13.6% [at 102 µM]
CCOC(=O)C1CCN(C(=O)Nc2cccc(OC)c2)CC1	–	inactive: 4.16% [at 102 µM]
COc1ccc(N2CCN(C(=O)c3ccc4c(c3)CCN4S(=O)(=O)c3ccccc3)CC2)cc1	active: 12.6 µM and active: 28.2 µM	–
COc1ccc(-c2[nH]ncc2CN(CCO)Cc2cccs2)c(F)c1	inconclusive: 25.1 µM [inhibitor, single point]	–
CCCc1nnc(NC(=O)c2c(O)c3c([nH]c2=O)CCCC3)s1	–	inactive: 22.5%
OCC[C@@H]1C[C@H](O)[C@@H](O)[C@@]2(OCCCc3ccccc32)O1	–	inactive: -8.11% [at 102 µM]
COc1ccccc1CNCC(c1ccccc1)c1ccccc1	active: 39.8 µM	–
COc1cccc(C(=O)NNC(=O)c2cccc(F)c2)c1	–	inactive: 4.31% [at 102 µM]
O=C(CN1CCN(CC(=O)Nc2ccccc2Cl)CC1)NCC1(N2CCOCC2)CCCCC1	inconclusive: 100 µM [inhibitor, single point]	–
CC1CCc2c(sc(/N=C/c3ccco3)c2C(N)=O)C1 (stereo not given)	inconclusive: 56.2 µM [inhibitor, partial curve, poor fit]	–
CCOC(=O)c1nc(NCc2ccccc2)sc1C	active: 3.55 µM	–
COCCCNC(=O)C1CCN(Cc2cc3ccccc3n2Cc2cccc(Cl)c2)CC1	inconclusive: 35.5 µM [inhibitor, single point]	–
Cc1cccc(OCC2=NS(=O)(=O)c3ccccc3N2)c1	inconclusive: 70.8 µM [inhibitor, single point]	–
Brc1ccc(NC(c2ccccc2)c2ccncc2)cc1 (stereo not given)	inconclusive: 0.891 µM [inhibitor, single point]	–
O=C(Nc1cc(S(=O)(=O)Nc2ccc(Cl)cc2)ccc1N1CCCCC1)c1ccc(F)cc1	active: 10 µM	–
CC1=NOC(=O)/C1=C\c1ccc(-c2cccc(Cl)c2)o1	active: 25.1 µM	–
O=C(Nc1ccccc1C(=O)NCCCn1ccnc1)c1ccccc1	–	inactive: -16.3% [at 102 µM]
COc1ccc(NCc2ccc(OC)c(OC)c2)cc1	inconclusive: 31.6 µM [inhibitor, single point]	–
CCn1cc(C(=O)N(C)c2cc(C)ccc2C)c2cc(OC)c(OC)cc2c1=O	–	inactive: -4.46%
